# Source: the antibiotic and cytotoxicity screens of Wong et al. (2023)
# Some of the results follow.
# What was measured:
# HSkMC = human skeletal muscle cells; test: cytotoxicity call (relative viability < 0.9); settings: 10 µM
# HepG2 = test: cytotoxicity call (relative viability < 0.9); settings: 10 µM
# S. aureus RN4220 = test: growth inhibition call (relative growth <= 0.2); settings: 50 µM
SMILES,cytotoxicity call (HSkMC),cytotoxicity call (HepG2),growth inhibition call (S. aureus RN4220)
O=C(C[C@@H]1CC[C@H]2[C@@H](COC[C@H](O)CN2S(=O)(=O)c2ccccc2F)O1)NCc1ccc(Cl)c(Cl)c1,inactive,inactive,inactive
Cc1noc(C)c1NC(=O)Nc1ccc2c(c1)C(=O)N([C@H](C)CO)C[C@@H](C)[C@@H](CN(C)C(=O)NC(C)C)O2,inactive,inactive,inactive
C[C@@H]1CCCCO[C@H](CN(C)Cc2ccc(C(=O)O)cc2)[C@@H](C)CN([C@@H](C)CO)C(=O)c2cc(NC(=O)NC3CCCCC3)ccc2O1,inactive,inactive,inactive
C[C@H](CO)N1C[C@H](C)[C@H](CN(C)S(=O)(=O)c2ccc(F)cc2)Oc2c(NS(=O)(=O)c3cccs3)cccc2C1=O,inactive,inactive,inactive
Cc1ccc(S[C@]2(C(=O)NC(C)C)CC(=O)N(Cc3ccccc3C(F)(F)F)[C@@H]2c2ccc(CO)cc2)cc1,inactive,inactive,inactive
C[C@@H]1CN([C@@H](C)CO)C(=O)c2cc(NC(=O)Nc3ccc(C(F)(F)F)cc3)ccc2O[C@H]1CN(C)C(=O)NC1CCCCC1,inactive,inactive,inactive
C[C@@H]1CCCCO[C@@H](CN(C)C(=O)Nc2ccc(F)cc2)[C@@H](C)CN([C@H](C)CO)C(=O)c2cc(NS(=O)(=O)c3ccccc3)ccc2O1,inactive,inactive,inactive
CC(C)NC(=O)N[C@H]1CC[C@H](CCN)O[C@@H]1CO,inactive,inactive,inactive
CCn1cc(C(=O)O)c(=O)c2ccc(C)nc21,inactive,inactive,inactive
C[C@@H]1CN([C@@H](C)CO)C(=O)Cc2cc(NC(=O)CCC(F)(F)F)ccc2O[C@@H]1CN(C)Cc1ccc(C(F)(F)F)cc1,inactive,inactive,inactive
Cc1ccc(S(=O)(=O)N(C)C[C@H]2Oc3ccc(NC(=O)Nc4ccc(C(F)(F)F)cc4)cc3CC(=O)N([C@H](C)CO)C[C@H]2C)cc1,active,active,inactive
CCS(=O)(=O)N1CCC[C@]2(C(=O)NCC3CC3)CN(Cc3cnn(C)c3)C[C@H]2C1,inactive,inactive,inactive
C[C@H](CO)N1C[C@H](C)[C@@H](CN(C)C(=O)Nc2ccc3c(c2)OCO3)Oc2ccc(NS(=O)(=O)c3cn(C)cn3)cc2CC1=O,inactive,inactive,inactive
CO[C@H]1CN(C)C(=O)c2cc(NC(=O)C3CCOCC3)ccc2OC[C@@H](C)N(Cc2cccnc2)C[C@@H]1C,inactive,inactive,inactive
C[C@H](CO)N1C[C@H](C)[C@@H](CN(C)C(=O)Nc2ccc(C(F)(F)F)cc2)OCCCC[C@H](C)Oc2ccc(NC(=O)Nc3ccc4c(c3)OCO4)cc2C1=O,inactive,inactive,inactive
COc1ccc2c3c(n(c2c1)C)[C@@H](CO)N(C[C@]13CCN(CC1)CC1CCOCC1)C(=O)Cc1ccccn1,inactive,inactive,inactive
CCOC(=O)c1nonc1N,inactive,inactive,inactive
CC(C)NC(=O)Nc1ccc2c(c1)CC(=O)N([C@H](C)CO)C[C@@H](C)[C@H](CN(C)S(=O)(=O)c1cccs1)O2,inactive,inactive,inactive
C[C@@H]1CN([C@@H](C)CO)S(=O)(=O)c2ccc(C#Cc3ccccc3)cc2O[C@H]1CN(C)C(=O)CN(C)C,inactive,inactive,inactive
C[C@@H]1CCCCO[C@@H](CN(C)C(=O)Nc2ccc3c(c2)OCO3)[C@@H](C)CN([C@H](C)CO)C(=O)c2cc(NC(=O)Cc3ccccc3)ccc2O1,inactive,inactive,inactive
COc1ccc2c3c(n(c2c1)C)[C@@H](CO)N(Cc1ccccc1)C[C@]13CCN(CC1)C(=O)Nc1cccc(c1)F,inactive,inactive,inactive
Cc1noc(C)c1NC(=O)Nc1ccc2c(c1)C(=O)N([C@@H](C)CO)C[C@H](C)[C@@H](CN(C)Cc1ccc(Cl)c(Cl)c1)OCCCC[C@@H](C)O2,inactive,active,inactive
O=C(C[C@H]1CC[C@H]2[C@@H](COC[C@H](O)CN2C(=O)c2ccncc2)O1)NCc1ccc(-c2ccccc2)cc1,inactive,inactive,inactive
COCC#Cc1cnc2c(c1)C(=O)N([C@H](C)CO)C[C@@H](C)[C@H](CN(C)C(=O)CCN1CCCCC1)O2,inactive,inactive,inactive
C[C@@H]1CN([C@@H](C)CO)C(=O)c2cccc(NC(=O)C3CCOCC3)c2O[C@@H]1CN(C)Cc1ccc2c(c1)OCO2,inactive,inactive,inactive
